Test results as given in PubChem BioAssay AID493208 (National Center for Advancing Translational Sciences (NCATS), 2011).
About 340 (0.77%) of roughly 44,000 compounds were called active. About 5% were inconclusive and are not listed. Calls come from the whole dose curve; as a rule, active = well fitted inhibition curve with a large enough effect; inconclusive = small, poorly fitted or top-dose-only effect; inactive = flat fitted curve, though single readings scatter. This is one part of the list.

Assay: Acumen qHTS Assay for Inhibitors of the mTORC1 Signaling Pathway in MEF (Tsc2-/-, p53-/-) Cells: Sytravon;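 note: plate controls were DMSO for no effect and rapamycin for full effect; nearly all actives have a fitted effect of over 50% in size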
Details: phospho-rpS6 immunofluorescence/PI, 24 h; series mostly up to 38.3 µM; activity change, negative = inhibition: at the top concentration
In short: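 Immunofluorescence of rpS6 phosphorylation in Tsc2-/-, p53-/- MEFs after 24 h compound exposure, normalized to propidium iodide signal. Activity is expressed as % positive cells, thresholded with 7.5 nM rapamycin.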

Activity change, negative = inhibition, inactive:
COc1cc(C2c3c(oc4ccccc4c3=O)C(=O)N2c2ccccn2)cc(OC)c1OC (configuration not stated) -4.21%, Cc1cccc(NC(=O)C2CCC(CNS(=O)(=O)c3ccc(Br)s3)CC2)c1 (configuration not stated) -14.7%, Cc1ccc(C)c(C(=O)c2c(N)c(-c3nc(-c4ccc5c(c4)OCO5)cs3)c3ccccn23)c1 0.0608%, Cc1ccc(OCC(=O)Nc2ccc(Cl)c(-c3nc4ncccc4o3)c2)c(C)c1 -4.95%, COc1cccc(C2CC(=O)N(c3ccc(F)cc3)C3=C2C(=O)OC3)c1OC (configuration not stated) -19.1%, Cn1ccc2c(OCC(=O)NCc3ccccc3)cccc2c1=O 0.742%, COCCNC(=O)c1c[nH]c2ccc(S(=O)(=O)Nc3ccc(F)cc3F)cc2c1=O -9.71%, CC(C)c1nn2c(=O)cc(COC(=O)c3cccc(NC(=O)c4cccs4)c3)nc2s1 3.9%, CCc1ccc(C2=NN(CCC(=O)NCCc3ccc(OC)c(OC)c3)C(=O)CC2)cc1 0.32%, CCCOc1ccc(-c2nonc2NC(=O)c2cc(OC)c(OC)c(OC)c2)cc1OCCC 2.45%, CCc1ccccc1NC(=O)CCOc1ccccc1 7.43%, Cc1ccc(N2CC(NC(=O)c3cc4ccccc4o3)CC2=O)cc1C (configuration not stated) -5.26%, COc1ccc(CSc2nc3ccncc3n2CC(=O)Nc2ccc(C)c(F)c2)cc1 -7.7%, CCc1ccccc1NC(=O)Cn1c(=O)n(-c2ccc(CC(=O)NCC3CCCO3)cc2)c(=O)c2ccccc21 (configuration not stated) -6.46%, Cc1ccccc1C(=O)Nc1ccc2nc(SCC(=O)N3CCc4ccccc43)sc2c1 -12.2%, COc1ccc(CNC(=O)c2ccc3c(c2)N(Cc2ccc(C)cc2)CCS3)cc1 3.37%, CCOC(=O)c1cnc2nc(NCc3cccc(Br)c3)[nH]n2c1=O 4.3%, COc1ccccc1CNC(=O)CC(c1ccc(C)cc1)N1Cc2ccccc2C1=O (configuration not stated) -6.71%, Cc1cc(C)cc(-n2ccn(Cc3ccccc3C)c(=O)c2=O)c1 9.53%, COc1ccc(CCNC(=O)CCS(=O)(=O)c2cc(Br)cc3c2N(C(C)=O)CC3)cc1OC -16%, Cc1cc(C)cc(NC(=O)C2CCCN2S(=O)(=O)c2ccc3c(c2)CCCC(=O)N3)c1 (configuration not stated) 5.98%, Cc1ccc(CNC(=O)C2COc3ccccc3C2)cc1 (configuration not stated) 0.579%, Clc1ccc(-c2nc3c4cnn(-c5ccccc5Br)c4ncn3n2)c(Cl)c1 -7.98%, COC(=O)CSc1nc2sc3c(c2c(=O)n1-c1ccccc1C)CC(C)(C)OC3 -12.7%, Cc1ccccc1NC(=O)c1sc2nc3n(c(=O)c2c1C)CCC3 -0.757%, Cc1ccc(OCC(=O)OC2=C(C(=O)c3ccccc3)N(C)S(=O)(=O)c3ccccc32)cc1 -0.193%, Cc1oc(-c2ccc(C(=O)NCCC(C)C)cc2)nc1CN1CCc2ccccc21 -2.71%
